{
  "source": "patent US20200121803A1",
  "about": "(published 2020)",
  "binders": {"B1": {"name": "ChAb4-CZ (other)", "VH": "EVKLVESGGGLVQPGGSLRLSCTTSGFTFTDYYMSWVRQPPGKALEWLGFIRNKATIYTTEYSASVKGRFTISRDNSQSILYLQMNTLRAEDSATYYCARASYGNSEGWFAYWGQGTLVTVSA", "VL": "DIVMSQSPSSLAVSVGEKVTMS[about 80 residues omitted here]FGGGTKLEIK", "modifications": "synthon CZ on reduced interchain Cys of the constant regions (sites not numbered)"}},
  "target": "T1, human CD98 on the cell surface (human)",
  "T1 chain": "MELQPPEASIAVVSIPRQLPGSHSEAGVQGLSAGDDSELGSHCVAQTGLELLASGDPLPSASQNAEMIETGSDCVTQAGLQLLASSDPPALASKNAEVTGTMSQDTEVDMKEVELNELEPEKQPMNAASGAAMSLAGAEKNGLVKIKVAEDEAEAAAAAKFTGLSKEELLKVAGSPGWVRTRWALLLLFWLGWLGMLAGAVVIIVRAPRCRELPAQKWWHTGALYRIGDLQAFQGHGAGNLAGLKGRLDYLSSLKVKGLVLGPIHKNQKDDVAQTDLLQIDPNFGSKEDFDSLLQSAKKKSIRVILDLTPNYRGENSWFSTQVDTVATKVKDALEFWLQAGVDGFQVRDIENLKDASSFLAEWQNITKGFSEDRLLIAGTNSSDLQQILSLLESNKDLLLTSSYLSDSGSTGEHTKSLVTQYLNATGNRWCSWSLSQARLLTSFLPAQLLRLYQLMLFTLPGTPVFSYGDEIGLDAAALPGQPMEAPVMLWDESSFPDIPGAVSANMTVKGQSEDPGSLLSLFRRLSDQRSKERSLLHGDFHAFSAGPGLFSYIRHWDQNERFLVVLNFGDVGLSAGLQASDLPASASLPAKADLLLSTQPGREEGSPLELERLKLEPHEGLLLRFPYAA",
  "experiment": "cell-based or functional assay",
  "data": [
    {"binder": "B1", "values": [
      {"measurement": "ADC potency, IC50 (nM), H146 (SCLC) growth inhibition", "result": 0.043, "unit": "nM"},
      {"measurement": "ADC potency, IC50 (nM), H2170 (NSCLC) growth inhibition", "result": 0.12, "unit": "nM"},
      {"measurement": "ADC potency, IC50 (nM), MOLT4 (leukemia) growth inhibition", "result": 0.03, "unit": "nM"}
    ]}
  ]
}
